Hit rate of the full screen: of about 310,000 compounds, about 14,000 (4.5%) showed an effect of 50% or more. The effect is printed as a negative number. Some of the results follow. Where a SMILES comes first, the peptide text is derived from it. [ ]: non-standard residue; d: D form. The star is where a group is joined. ξ: configuration not given here. Boc = CC(C)(C)OC(=O)*; NHBn = c1ccc(CN*)cc1; ξV = CC(C)C(N)C(=O)O
The compounds below were run against human ether-à-go-go-related gene (hERG) potassium channel (human, UniProt Q12809) (assay: primary screen, population patch clamp on CHO cells stably expressing hERG).
human ether-à-go-go-related gene (hERG) potassium channel, sequence (Q12809 whole entry, looked up): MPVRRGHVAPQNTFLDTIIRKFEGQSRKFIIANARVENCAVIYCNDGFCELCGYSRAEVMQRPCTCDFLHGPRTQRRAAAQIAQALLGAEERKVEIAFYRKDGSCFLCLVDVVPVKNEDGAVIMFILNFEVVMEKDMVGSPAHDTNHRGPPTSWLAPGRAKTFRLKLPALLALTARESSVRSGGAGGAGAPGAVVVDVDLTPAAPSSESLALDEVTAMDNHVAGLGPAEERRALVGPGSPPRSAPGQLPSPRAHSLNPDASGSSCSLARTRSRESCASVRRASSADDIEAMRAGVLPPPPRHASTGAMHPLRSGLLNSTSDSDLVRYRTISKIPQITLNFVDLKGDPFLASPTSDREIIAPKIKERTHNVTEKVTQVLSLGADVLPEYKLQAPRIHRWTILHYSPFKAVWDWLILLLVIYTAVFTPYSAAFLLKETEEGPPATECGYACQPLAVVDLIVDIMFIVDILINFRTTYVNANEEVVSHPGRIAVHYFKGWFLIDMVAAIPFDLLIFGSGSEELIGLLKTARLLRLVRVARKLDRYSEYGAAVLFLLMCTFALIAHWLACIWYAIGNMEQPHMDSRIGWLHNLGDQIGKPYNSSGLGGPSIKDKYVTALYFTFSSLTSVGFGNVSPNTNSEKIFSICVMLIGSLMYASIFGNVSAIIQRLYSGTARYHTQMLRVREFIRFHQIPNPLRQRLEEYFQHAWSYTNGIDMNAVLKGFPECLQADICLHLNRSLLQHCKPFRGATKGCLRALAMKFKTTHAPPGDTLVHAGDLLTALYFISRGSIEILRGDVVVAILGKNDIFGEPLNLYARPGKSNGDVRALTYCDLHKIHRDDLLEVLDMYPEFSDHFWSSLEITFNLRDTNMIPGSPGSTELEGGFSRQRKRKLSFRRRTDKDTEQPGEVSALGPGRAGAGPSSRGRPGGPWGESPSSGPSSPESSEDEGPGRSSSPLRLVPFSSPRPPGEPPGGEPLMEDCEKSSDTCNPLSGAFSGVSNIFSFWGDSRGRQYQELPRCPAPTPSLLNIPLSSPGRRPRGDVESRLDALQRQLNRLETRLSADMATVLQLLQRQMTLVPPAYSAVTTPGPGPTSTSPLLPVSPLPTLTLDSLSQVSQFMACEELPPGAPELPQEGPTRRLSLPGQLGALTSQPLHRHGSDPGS
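Note: peak tail current of the secondary pulse compared with the same well before compound.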

Row | SMILES | hERG current change (%, negative = inhibition) at 10uM
1 | Cc1cc(C)nc(N2CCC(C(=O)Nc3ccc4c(c3)OCO4)CC2)n1 | -5.31%
2 | Cc1cccc(C)c1NC(=O)c1cc2c(=O)c3ccccc3oc2nc1C(F)(F)F | -3.38%
3 | COc1ccc(C)cc1NS(=O)(=O)c1ccc(Cl)nc1 | -9.58%
4 | CCc1ccc(NC(=O)C(=O)NCCN2CCN(C(=O)c3ccco3)CC2)cc1 | -67%
5 | COc1ccc(S(=O)(=O)Nc2ccc(F)c(F)c2)cc1C(=O)N1CCOCC1 | 13.3%
6 | O=C1/C(=C/c2cccs2)SC(=S)N1CCC(=O)N1CCCCC1CCO (stereo not shown) | 5.57%
7 | CC(=O)Nc1ccc(S(=O)(=O)N(C)CC(=O)OCC(=O)Nc2cc(C)on2)cc1 | 7.03%
8 | Cn1c(C(C#N)C(=O)c2ccco2)nc2ccccc21 (stereo not shown) | 14.6%
9 | O=C(NC1CC1)C1CCN(S(=O)(=O)c2ccc(Cl)c([N+](=O)[O-])c2)CC1 | -14.1%
10 | CCc1nc(SCC(=O)c2c[nH]c3ccccc23)n[nH]1 | 15.7%
11 | O=C1NC(=S)S/C1=C/c1ccc(OC(=O)c2ccco2)cc1 | 14%
12 | CCN(CC)C(=O)c1ccc(-c2ccccc2)cc1 | -1.32%
13 | NS(=O)(=O)c1ccc(N/N=C/c2ccc[nH]2)c([N+](=O)[O-])c1 | 0.228%
14 | Cc1nc(SCC(=O)N2CCN(c3ccccc3)CC2)c2oc3ccccc3c2n1 | -48%
15 | CC(C)c1nc2sc3c(SCC(N)=O)ncnc3c2c2c1CCC2 | 11.9%
16 | CCC[C@H](N[C@@H](C)C(=O)N1[C@H](C(=O)O)C[C@@H]2CCCC[C@@H]21)C(=O)OCC | 9.19%
17 | CCOCCCNC(=O)C(c1ccc(OC)cc1)N(Cc1ccc2c(c1)OCO2)C(=O)c1cnccn1 (stereo not shown) | 8.96%
18 | CCCC(=O)n1nc(-c2ccccc2)nc1N | 15.4%
19 | C#CCOCCOCCOCCNc1nc(N2CCN(C(=O)[C@H](Cc3ccc(O)cc3)n3cc([C@@H](N)CC(C)C)nn3)CC2)nc(N2CCN(C(=O)[C@H](Cc3cc4ccccc4[nH]3)n3cc([C@@H](N)CC(C)C)nn3)CC2)n1.Cl | 6.67%
20 | Cc1cc(=O)oc2cc(OCC(O)CN3CCN(c4ccccc4)CC3)ccc12.Cl (stereo not shown) | -47.4%
21 | C=CCOc1cccc(C2C(C(=O)c3cccs3)=C(O)C(=O)N2Cc2cccnc2)c1 (stereo not shown) | -1.2%
22 | COc1ncccc1-c1nnn(-c2ccc(Cl)nc2)n1 | 3.26%

Row | SMILES | hERG current change (%, negative = inhibition) at 10uM
23 | O=S(=O)(c1ccccc1)c1cccc(S(=O)(=O)N2CCCCC2)c1 | -8.22%
24 | Cc1c(C(=O)NCc2ccc3c(c2)OCO3)oc2ccccc12 | -18.1%
25 | O=C(CSc1nnc(-c2cccnc2)o1)Nc1ccc(Cl)cc1 | -1.77%
26 | Cc1oncc1C(=S)Nc1ccccc1 | 6.95%
27 | O=C1CCC(=O)c2oc3ccccc3c2N1 | 6.16%
28 | COc1cc(F)c(S(=O)(=O)N2CCOc3ccccc32)cc1OC | -5.38%
29 | OCCCCO | 13.7%
30 | C/C(=N\NC(=O)COc1ccc([N+](=O)[O-])cc1)c1ccco1 | -28.3%
31 | COc1cc2c(cc1OC)C(C)N(C(C)=O)CC2 (stereo not shown) | -3.46%
32 | CCOCCCNC(=S)N1CCC(C(=O)c2ccc3c(c2)OCCO3)CC1 | 6.95%
33 | CCOc1ccc(N2C(=O)c3cccnc3C2Nc2ccc(Cl)cc2)cc1 (stereo not shown) | 11.5%
34 | Oc1ccc(/C=C/c2nc(-c3ccccc3O)n(-c3ccccc3)n2)cc1 | -4.56%
35 | O=C(NCC1CCCN1S(=O)(=O)c1cccs1)c1cccc(F)c1 (stereo not shown) | 8.18%
36 | CCN(CC(=O)Nc1ccc(C(C)=O)cc1)CC(=O)Nc1ccccc1C(F)(F)F | 2.52%
37 | Cc1ccc(N(Cc2ccc(C(=O)NN=C3CCN(C)CC3)cc2)S(C)(=O)=O)cc1C | 0.0652%
38 | O=C1c2ccc(-c3ccc4c(c3)C(=O)N(CCCO)C4=O)cc2C(=O)N1CCCO | 0.197%
39 | COc1cccc(C2=NOC(C(=O)N3CCc4ccccc4C3)C2)c1 (stereo not shown) | -29.1%
40 | CCCN1CCN(C(=O)c2cn(CC(C)C)c(=O)c3cc(OC)c(OC)cc23)CC1 | -41.1%
41 | CC1=C(C(=O)Nc2ccccc2)C(c2cccc([N+](=O)[O-])c2)Nc2nc3ccccc3n21 (stereo not shown) | 6.45%
42 | CCCOc1cccc(C(=O)NCCNC(=O)c2ccco2)c1 | 17.7%
43 | Cc1ccccc1Cn1cc(NC(=O)c2nc3ncccn3n2)cn1 | -1.56%
44 | Cc1cc(NC(=O)CN2CCCCC2)no1.O=C(O)C(=O)O | 18.8%

Row | SMILES | hERG current change (%, negative = inhibition) at 10uM
45 | Cn1cc(SCC(=O)NCC2CCCO2)c2ccccc21 (stereo not shown) | -3.9%
46 | CN(C)c1ccc(/C=N/n2c(-c3cccnc3)n[nH]c2=S)cc1 | 13.8%
47 | O=C(Nc1ccc2oc(=O)ccc2c1)c1ccc(-c2cccc(Cl)c2)o1 | 10.2%
48 | O=C(Cn1cnc2ccccc2c1=O)Nc1ccc(S(=O)(=O)N2CCCC2)cc1 | 15.2%
49 | COc1cc(OC)c(NC(=O)c2ccc3c(SCC(=O)O)c4c(nc3c2)CCCC4)cc1Cl | 21.7%
50 | NC(=O)CSc1nnc(-c2ccc(S(=O)(=O)N3CCOCC3)cc2)n1Cc1ccccc1 | -1.42%
51 | CC1(c2ccc(Cl)cc2Cl)NC(=O)N(CC(=O)Nc2cccnc2Cl)C1=O (stereo not shown) | -0.315%
52 | COc1ccc(Cl)cc1NC(=O)C(C)OC(=O)c1ccc(NS(=O)(=O)c2ccc3[nH]c(=O)[nH]c3c2)cc1 (stereo not shown) | 9.32%
53 | Cc1cnc(NC(=O)[C@H](C)N2C(=O)C3CCCCC3C2=O)s1 (stereo partly shown) | 14.5%
54 | CCn1c(CNC(=O)Cc2ccc(OC)cc2)nnc1SCC(=O)NC1CCCCC1 | 8.03%
55 | Cc1cccc(N2C(S)=C(C#N)C(=O)NC2c2ccco2)c1 (stereo not shown) | -0.201%
56 | COc1ccc(NS(=O)(=O)c2ccc(N3CCOCC3)c(NC(=O)C(C)C)c2)cc1 | 3.13%
57 | O=C(Nc1ccccc1C(=O)O)/C(=C/c1ccc(Cl)cc1Cl)NC(=O)c1ccco1 | 20.4%
58 | COc1ccc(NC(=O)COC(=O)CC2CCCC2)cc1Cl | -1.21%
59 | COCc1cc(C)n(CC(=O)N2CCCC2)c(=O)c1C#N | 18.9%
60 | Cc1cc2oc(C(=O)NCc3ccc(S(N)(=O)=O)cc3)c(C)c2cc1C | 12.4%
61 | C=CCn1c(O)c(N=Nc2ccccc2)c2ccccc21 | 0.0231%
62 | CCC(C)NC(=O)c1ccc2c(SCC(=O)O)c3c(nc2c1)CCCC3 (stereo not shown) | -19.3%
63 | O=C(NNS(=O)(=O)c1ccccc1Cl)c1nn(-c2ccc(F)cc2)ccc1=O | 16.5%
64 | CC(C)C(NC(=O)CNC(=O)OC(C)(C)C)C(=O)NCc1ccccc1 (stereo not drawn) (Boc-Gly-[ξV]-NHBn) | -4.83%
65 | CC(=O)c1ccc(-n2c(CCC(=O)O)ccc2-c2ccc(C)cc2)cc1 | -3.05%
66 | C/C(N)=C(/C#N)C(=O)CSc1nnnn1-c1ccccc1 | 2.15%

Row | SMILES | hERG current change (%, negative = inhibition) at 10uM
67 | Cn1c(CSCc2ccc(Cl)c(Cl)c2)nnc1SCC(=O)Nc1nccs1 | 3.77%
68 | O=C(Nc1c2ccccc2nc2ccccc12)C(Cl)(Cl)Cl | -5.92%
69 | Cc1nc2ccc(Cl)cc2c(-c2ccccc2F)c1CC(=O)O | 0.288%
70 | COCCn1c(=S)[nH]c2cc(C(=O)NCCc3ccc(OC)c(OC)c3)ccc2c1=O | -4.04%
71 | COc1ccccc1CCNC(=O)Cn1ccc2cc(S(=O)(=O)N3CCC(C)CC3)ccc21 | 15.7%
72 | CC(C)(C)c1cc(NC(=O)c2c(F)cccc2Cl)n(-c2ccccc2)n1 | -37.5%
73 | CC(=O)c1cccc(N(C(=O)c2ccco2)C(C(=O)NC2CCCC2)c2ccc(N3CCOCC3)cc2)c1 (stereo not shown) | 8.31%
74 | Cc1occc1C(=O)NNC(=O)c1ccccc1C(=O)O | 6.98%
75 | Cc1ccccc1N1C(N)=NC(N)=NC1(C)C.Cl | -1.79%
76 | c1coc(CNc2c3c(nc4ccccc24)CCC3)c1 | -78.7%
77 | Cc1ccc(S(=O)(=O)NNC(=O)C(O)(c2ccccc2)c2ccccc2)cc1 | 1.02%
78 | CC1CCN(C(=O)CCCOc2cc(=O)n(C)c3ccccc23)CC1 | -20.7%
79 | O=C(CCC(=O)N(CC(=O)NC1CCCCC1)c1ccc(F)cc1)Nc1nccs1 | -73.7%
80 | COc1ccc(-c2cc(C(=O)Nc3cccnc3)no2)cc1OC | 24.8%
81 | CCOC(=O)c1[nH]c(C)c(C(=O)Nc2ccc(Cl)cc2)c1C | 2.31%
82 | CC(=O)c1ccc(NC(=O)CN2C(=O)NC(C)(C3CCCCC3)C2=O)cc1 (stereo not shown) | -3.52%
83 | Cc1nc(C)n(CC(C)C(=O)N2CCN(S(=O)(=O)c3ccc(Cl)cc3)CC2)n1 (stereo not shown) | -45.9%
84 | Cc1cnc(C(=O)Nc2ccc(N3CCCCC3)cc2)cn1 | 3.81%
85 | COc1ccccc1N1CCN(C(=O)CN2C(=O)c3ccccc3C2=O)CC1 | 11.9%
